Measured values taken from US4772586A, “Novel derivatives of arginine vasopressin antagonists” (Medical College of Ohio, priority 1986, dated 1988).
At least one peptide structure holds a part that was inferred or is arguable (an end, a ring closure or a residue). *1 amine or outer side, *2 acyl side, *3 side chain or, on linkers, in order; H or OH if unused. Where a SMILES comes first, the peptide text is derived from it. Bridges are numbered along the chain shown (N, C = ends). [ ]: non-standard residue; d: D form. The star is where a group is joined. X1 = O=C(CC1(S[*:2])CCCCC1)[*:1]; NH(CH2)4NH2 = NCCCCN*; NHCH2CH2OH = OCCN*; NHBu = CCCCN*

Key:
[1] = tested on: antidiuretic response to arginine vasopressin; experiment: Antagonism of the antidiuretic response to arginine vasopressin (Anti-ADH); format: in vivo, rats; design: key to Anti-ADH Potency (footnote symbol in place of ED/pA2): +: mixed; ++: weak agonist (0.03 u/mg); +++: weak agonist; conditions: for Anti-ADH Potency ED: evaluated as in Example 8
Protocol: Activity as antidiuretic agonists was determined by intravenous injection of the compounds being evaluated in ethanol-anesthesized water-loaded rats in accordance with Sawyer, Endocrinology, vol. 63 (1958) at 694. Antagonism of the antidiuretic response to subsequent injections of arginine vasopressin was tested by the method of Sawyer et al., Science, vol. 212 (1981) at 49.
(§1) Antagonistic potencies were determined and expressed as "effective doses" and pA2 values. The "effective dose" is defined as the dose (in nanomoles per kilogram) that reduces the response seen from 2x units of agonist injected 20 min after the dose of antagonist to the response with 1x units of agonist. Estimated in vivo "pA2 " values represent the negative logarithms of the effective doses, divided by the estimated volume of distribution (67 ml/kg).

[2] = tested on: vasopressor response to arginine vasopressin; experiment: Antagonism to the vasopressor response (Anti-VP); format: in vivo; conditions: for Anti-VP Potency ED: evaluated as in Example 8; for ED ratio: anti-VP ED relative to anti-ADH ED
Protocol: Antagonism to the vasopressor response was estimated in accordance with Dyckes et al., J. Med. Chem., vol. 17 (1974) at 969. The values are expressed as pA2 values, defined as in Schild et al., Br. J. Pharmacol., vol. 2 (1947) at 189.
as §1

SMILES | Anti-ADH Potency ED ([1]; Table 4, ^+ = mixed) | Anti-VP Potency ED ([2]; Table 4) | also measured
CCOc1ccc(C[C@H]2NC(=O)CC3(CCCCC3)SSC[C@@H](C(=O)N3CCC[C@H]3C(=O)N[C@@H](CCCNC(=N)N)C(=O)NCCCCN)NC(=O)[C@H](CC(N)=O)NC(=O)[C@H]([C@@H](C)CC)NC(=O)[C@H](Cc3ccccc3)NC2=O)cc1 [[1-(beta-mercapto-beta,beta-cyclopentamethylenepropionic acid), 2-D-(O-ethyl)tyrosine, 4-isoleucine, 8-arginine-N-(delta-amino)butylamide,9-desglycinamide] vasopressin] ([dY](Et)FINCPR-{NH(CH2)4NH2}; linker N-5 via X1) | 1.41 ± 0.15 nanomoles per kilogram | 1.12 ± 0.09 nanomoles per kilogram | –
CC[C@H](C)[C@@H]1NC(=O)[C@H](Cc2ccccc2)NC(=O)[C@@H](Cc2ccccc2)NC(=O)CC2(CCCCC2)SSC[C@@H](C(=O)N2CCC[C@H]2C(=O)N[C@@H](CCCNC(=N)N)C(=O)NCC(=O)NCCO)NC(=O)[C@H](CC(N)=O)NC1=O [[1-(beta-mercapto-beta,beta-cyclopentamethylenepropionic acid), 2-D-phenylalanine, 4-isoleucine, 9-glycine-N-(beta-hydroxy)ethylamide]-arginine vasopressin] ([dF]FINCPRG-NHCH2CH2OH; linker N-5 via X1) | 0.49 ± 0.15 nanomoles per kilogram | 8.5 ± 1.5 nanomoles per kilogram | –
CC[C@H](C)[C@@H]1NC(=O)[C@H](Cc2ccccc2)NC(=O)[C@@H](Cc2ccccc2)NC(=O)CC2(CCCCC2)SSC[C@@H](C(=O)N2CCC[C@H]2C(=O)N[C@@H](CCCNC(=N)N)C(=O)NCCCCN)NC(=O)[C@H](CC(N)=O)NC1=O [[1-(beta-mercapto-beta,beta-cyclopentamethylenepropionic acid), 2-D-phenylalanine, 4-isoleucine, 8-arginine-N-(delta-amino)butylamide, 9-desglycinamide] vasopressin] ([dF]FINCPR-{NH(CH2)4NH2}; linker N-5 via X1) | 0.53 ± 0.03 nanomoles per kilogram | 1.8 ± 0.3 nanomoles per kilogram | –
CC[C@H](C)[C@@H]1NC(=O)[C@H](Cc2ccccc2)NC(=O)[C@@H](Cc2ccccc2)NC(=O)CC2(CCCCC2)SSC[C@@H](C(=O)N2CCC[C@H]2C(=O)N[C@@H](CCCNC(=N)N)C(=O)NCCO)NC(=O)[C@H](CC(N)=O)NC1=O [[1-(beta-mercapto-beta,beta-cyclopentamethylenepropionic acid), 2-D-phenylalanine, 4-isoleucine, 8-arginine-N-(beta-hydroxy)ethylamide, 9-desglycinamide] vasopressin] ([dF]FINCPR-NHCH2CH2OH; linker N-5 via X1) | 0.49 ± 0.12 nanomoles per kilogram | 2.7 ± 0.8 nanomoles per kilogram | –
CCOc1ccc(C[C@H]2NC(=O)CC3(CCCCC3)SSC[C@@H](C(=O)N3CCC[C@H]3C(=O)N[C@@H](CCCNC(=N)N)C(N)=O)NC(=O)[C@H](CC(N)=O)NC(=O)[C@H](C(C)C)NC(=O)[C@H](Cc3ccccc3)NC2=O)cc1 [desGly^9 d(CH2)5 [D-Tyr(Et)^2]VAVP, [1-(beta-mercapto-beta,beta-cyclopentamethylenepropionic acid), 2-D-(O-ethyl)tyrosine, 4-valine, 9-desglycine]-arginine vasopressin] ([dY](Et)FVNCPR-NH2; linker N-5 via X1) | – | – | Anti-ADH ED ([1]; Table 1, effective dose reducing response to 2x units of agonist injected 20 min after antagonist to response with 1x units): 1.5 ± 0.3 nmol/kg; Anti-VP ED ([2]; Table 1, effective dose): 0.45 ± 0.04 nmol/kg
CCCCNC(=O)CNC(=O)[C@H](CCCNC(=N)N)NC(=O)[C@@H]1CCCN1C(=O)[C@@H]1CSSC2(CCCCC2)CC(=O)N[C@@H](Cc2ccc(OC)cc2)C(=O)N[C@@H](Cc2ccccc2)C(=O)N[C@@H](CCC(N)=O)C(=O)N[C@@H](CC(N)=O)C(=O)N1 [d(CH2)5 [Tyr(Me)^2, Gly(NHBu-n)^9]AVP, [1-(beta-mercapto-beta,beta-cyclopentamethylenepropionic acid), 2-(O-methyl)tyrosine, 9-glycine-N-(n-butyl)amide]-arginine vasopressin] (Y(Me)FQNCPRG-NHBu; linker N-5 via X1) | – | 0.38 ± 0.10 nanomoles per kilogram | Anti-ADH Potency (footnote symbol in place of ED/pA2) ([1]; Table 4): ++ (weak agonist (0.03 u/mg))
CCCCNC(=O)[C@H](CCCNC(=N)N)NC(=O)[C@@H]1CCCN1C(=O)[C@@H]1CSSC2(CCCCC2)CC(=O)N[C@H](Cc2ccccc2)C(=O)N[C@@H](Cc2ccccc2)C(=O)N[C@@H]([C@@H](C)CC)C(=O)N[C@@H](CC(N)=O)C(=O)N1 [[1-(beta-mercapto-beta,beta-cyclopentamethylenepropionic acid), 2-D-phenylalanine, 4-isoleucine, 8-arginine-N-(n-butyl)amide, 9-desglycinamide)] vasopressin] ([dF]FINCPR-NHBu; linker N-5 via X1) | – | 5.2 ± 0.9 nanomoles per kilogram | Anti-ADH Potency (footnote symbol in place of ED/pA2) ([1]; Table 4): +++
CCOc1ccc(C[C@H]2NC(=O)CC3(CCCCC3)SSC[C@@H](C(=O)N3CCC[C@H]3C(=O)N[C@@H](CCCNC(=N)N)C(=O)NCCO)NC(=O)[C@H](CC(N)=O)NC(=O)[C@H]([C@@H](C)CC)NC(=O)[C@H](Cc3ccccc3)NC2=O)cc1 [[1-(beta-mercapto-beta,beta-cyclopentamethylenepropionic acid), 2-D-(O-ethyl)tyrosine, 4-isoleucine, 8-arginine-N-(beta-hydroxy)ethylamide, 9-desglycinamide] vasopressin] ([dY](Et)FINCPR-NHCH2CH2OH; linker N-5 via X1) | 1.04 ± 0.04 nanomoles per kilogram | 0.93 ± 0.18 nanomoles per kilogram | –
CC[C@H](C)[C@@H]1NC(=O)[C@H](Cc2ccccc2)NC(=O)[C@@H](Cc2ccccc2)NC(=O)CC2(CCCCC2)SSC[C@@H](C(=O)N2CCC[C@H]2C(=O)N[C@@H](CCCNC(=N)N)C(=O)NCC(=O)NC)NC(=O)[C@H](CC(N)=O)NC1=O [[1-(beta-mercapto-beta,beta-cyclopentamethylenepropionic acid), 2-D-phenylalanine, 4-isoleucine, 9-glycine-N-methylamide]-arginine vasopressin] ([dF]FINCPRG-NHMe; linker N-5 via X1) | 0.59 ± 0.09 nanomoles per kilogram | 12 ± 4 nanomoles per kilogram | –
CNC(=O)[C@H](CCCNC(=N)N)NC(=O)[C@@H]1CCCN1C(=O)[C@@H]1CSSC2(CCCCC2)CC(=O)N[C@@H](Cc2ccc(OC)cc2)C(=O)N[C@@H](Cc2ccccc2)C(=O)N[C@@H](CCC(N)=O)C(=O)N[C@@H](CC(N)=O)C(=O)N1 [[1-(beta-mercapto-beta,beta-cyclopentamethylenepropionic acid), 2-(O-methyl)tyrosine, 8-arginine-N-methylamide, 9-desglycinamide] vasopressin] (Y(Me)FQNCPR-NHMe; linker N-5 via X1) | ~ 0.002 nanomoles per kilogram | 0.12 ± 0.01 nanomoles per kilogram | –
CC[C@H](C)[C@@H]1NC(=O)[C@H](Cc2ccccc2)NC(=O)[C@@H](Cc2ccccc2)NC(=O)CC2(CCCCC2)SSC[C@@H](C(=O)N2CCC[C@H]2C(=O)N[C@@H](CCCNC(=N)N)C(=O)N[C@H](C(N)=O)C(C)C)NC(=O)[C@H](CC(N)=O)NC1=O [Val(NH2), [1-(beta-mercapto-beta,beta-cyclopentamethylenepropionic acid), 2-D-phenylalanine, 4-isoleucine, 9-valinamide]-arginine vasopressin] ([dF]FINCPRV-NH2; linker N-5 via X1) | – | – | Anti-ADH Potency ED ([1]; Table 2): 0.57 ± 0.14 nanomoles per kilogram; ED ratio ([2]; Table 2): 2.8; Anti-VP Potency ED ([2]; Table 2): 1.6 ± 0.4 nanomoles per kilogram
CC[C@H](C)[C@@H]1NC(=O)[C@H](Cc2ccccc2)NC(=O)[C@@H](Cc2ccccc2)NC(=O)CC2(CCCCC2)SSC[C@@H](C(=O)N2CCC[C@H]2C(=O)N[C@@H](CCCNC(=N)N)C(=O)N2CCC[C@H]2C(N)=O)NC(=O)[C@H](CC(N)=O)NC1=O [Pro(NH2), [1-(beta-mercapto-beta,beta-cyclopentamethylenepropionic acid), 2-D-phenylalanine, 4-isoleucine, 9-prolinamide]-arginine vasopressin] ([dF]FINCPRP-NH2; linker N-5 via X1) | – | – | Anti-ADH Potency ED ([1]; Table 2): 4.4 ± 0.4 nanomoles per kilogram; ED ratio ([2]; Table 2): 1.3; Anti-VP Potency ED ([2]; Table 2): 5.7 ± 1.7 nanomoles per kilogram
CC[C@H](C)[C@@H]1NC(=O)[C@H](Cc2ccccc2)NC(=O)[C@@H](Cc2ccccc2)NC(=O)CC2(CCCCC2)SSC[C@@H](C(=O)N2CCC[C@H]2C(=O)N[C@@H](CCCNC(=N)N)C(=O)N[C@H](C(N)=O)[C@@H](C)O)NC(=O)[C@H](CC(N)=O)NC1=O [Thr(NH2), [1-(beta-mercapto-beta,beta-cyclopentamethylenepropionic acid), 2-D-phenylalanine, 4-isoleucine, 9-threoinamide]-arginine vasopressin] ([dF]FINCPRT-NH2; linker N-5 via X1) | – | – | Anti-ADH Potency ED ([1]; Table 2): 2.7 ± 0.8 nanomoles per kilogram; ED ratio ([2]; Table 2): 0.63; Anti-VP Potency ED ([2]; Table 2): 1.7 ± 0.4 nanomoles per kilogram
